Source: article PMC5892938
This is one part of the list. At the low end of the ranking, values are background and their order means little.

Target: GST-SBP-SLBP (stem-loop binding protein) (UniProt Q14493)
Assay: targeted RNA Bind-n-Seq;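 note: DESeq read counts versus GST-SBP nonspecific binding control pulldown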
Details: RBNS binding buffer: 25 mM Tris pH 7.5, 150 mM KCl, 3 mM MgCl2, 0.1% Tween, 0.5 mg/mL BSA, 1 mM DTT; 27 nM protein, 750 pM RNA pool; temperature not stated; high values mean tight binding

Row | Sequence | binding signal (log2 fold change)
1 | GGUCACGUCUCAAUCAACUCAAUCUCCAGGGAAAUCCCUGGUUAUCUCAACAGCUCGCAGUCAAG | 0.281
2 | GGUCACGUCUCAAUCAACUCUCAAGAGGGGGGGAAAACCCCUUUACCCUCCACGUCAACAGCUCGCAGUCAAG | 0.018
3 | GGUCACGUCUCAAUCAACUCUUUCCCAGGAGUUUACUCCUGCUAUUUCAACAGCUCGCAGUCAAG | 0.0801
4 | GGUCACGUCUCAAUCAACUCUUUUUCCAGGGAAAACCCUGGCAUACUCAACAGCUCGCAGUCAAG | 0.224
5 | GGUCACGUCUCAAUCAACUCUAUCUCAGGAGUUUUCUCCUGUUAUUUCAACAGCUCGCAGUCAAG | -0.0388
6 | GGUCACGUCUCAAUCAACUCUAUAGAGGGGGGGAAAACCCCUUUACCCUCAUUUUCAACAGCUCGCAGUCAAG | -0.08
7 | GGUCACGUCUCAAUCAACUCAUCCUCAGGAGUUUGCUCCUGUAAAUUCAACAGCUCGCAGUCAAG | 0.11
8 | GGUCACGUCUCAAUCAACUCUUUCUCCAGGGAAAACCCUGGCUUUUUCAACAGCUCGCAGUCAAG | -0.0594
9 | GGUCACGUCUCAAUCAACUCUUUCUCCAGGGAAAUCCCUGGCUAACUCAACAGCUCGCAGUCAAG | 0.041
10 | GGUCACGUCUCAAUCAACUCAUUUCCCAGGGAAAGCCCUGGCUAUCUCAACAGCUCGCAGUCAAG | 0.0624
11 | GGUCACGUCUCAAUCAACUCAUUCUCCAGGGAAAUCCCUGGCUAUCUCAACAGCUCGCAGUCAAG | 0.0128
12 | GGUCACGUCUCAAUCAACUCAUUCCCCAGGGAAAACCCUGGUUAUUUCAACAGCUCGCAGUCAAG | -0.00122
13 | GGUCACGUCUCAAUCAACUCAGUCUCAGGAGUUUACUCCUGUAUUUUCAACAGCUCGCAGUCAAG | -0.099
14 | GGUCACGUCUCAAUCAACUCAAUCUCAGGAGUUUGCUCCUGCAAUCUCAACAGCUCGCAGUCAAG | -0.0263
15 | GGUCACGUCUCAAUCAACUCUUUCUCCAGGGAAAACCCUGGCUAAUUCAACAGCUCGCAGUCAAG | 0.0251
16 | GGUCACGUCUCAAUCAACUCUACUUCCAGGGAAAGCCCUGGUAUUCUCAACAGCUCGCAGUCAAG | -0.225
17 | GGUCACGUCUCAAUCAACUCAAUCCCCAGGGAAAUCCCUGGCAAAUUCAACAGCUCGCAGUCAAG | -0.111
18 | GGUCACGUCUCAAUCAACUCCUUCGAGGGGGGGAAAACCCCUUUACCCUCUAUCUCAACAGCUCGCAGUCAAG | -0.208
19 | GGUCACGUCUCAAUCAACUCAUUUUCAGGAGUUUACUCCUGCAAUCUCAACAGCUCGCAGUCAAG | 0.102
20 | GGUCACGUCUCAAUCAACUCAUCCCCAGGAGUUUCCUCCUGUAUAUUCAACAGCUCGCAGUCAAG | 0.226
21 | GGUCACGUCUCAAUCAACUCACAAGAGGGGGGGAAAACCCCUUUACCCUCAUCGUCAACAGCUCGCAGUCAAG | -0.251
